{"source": "ChEMBL document CHEMBL4888484", "about": "“Replenishing the malaria drug discovery pipeline: Screening and hit evaluation of the MMV Hit Generation Library 1 (HGL1) against asexual blood stage Plasmodium falciparum ,using a nano luciferase reporter read-out” (2022)", "note": "About 540 (0.36%) of roughly 150,000 compounds showed an effect of 50% or more. The list shows a part of the results.", "data": [{"test_system": "Plasmodium falciparum", "test": "Primary screen in NF54 nanoGlo assay, in single point, at 2uM, 72h; a lower Z score goes with more inhibition", "type": "functional, Erythrocyte", "details": "timepoint 72 hour", "units": {"% Inhibition": "%"}, "values": [{"compound": "C[C@H](NC(=O)c1nnn(C)c1C(F)(F)F)c1cscn1", "% Inhibition": 30, "Z score": -1.45}, {"compound": "COc1ccc(NC(=O)Cc2nc(Cc3cccc(C)c3)n[nH]2)cc1Cl", "% Inhibition": -1, "Z score": 0.14}, {"compound": "CS(=O)(=O)c1ccc(C2(NC(=O)[C@H]3C[C@@H]3c3cccnc3)CCOC2)cc1", "note": "(some centres undefined)", "% Inhibition": -6, "Z score": 1.08}, {"compound": "Oc1cccc(CC[C@H]2CCCCN2Cc2cscn2)c1", "% Inhibition": -14, "Z score": 1.92}, {"compound": "Cc1c[nH]c(CN(C)Cc2nccn2C(C)C)n1", "% Inhibition": 11, "Z score": -1.94}, {"compound": "Cc1cccnc1CN(C)C(=O)c1cc(-c2cn[nH]c2)nc2cc(Cl)ccc12", "% Inhibition": -15, "Z score": 2.17}, {"compound": "O=C(N[C@H]1CC[C@@H](CO)C1)c1ccnc(C2CC2)c1", "% Inhibition": -3, "Z score": 0.4}, {"compound": "O=S(=O)(NCC1CCCC1O)c1ccc2cn[nH]c2c1", "note": "(centres undefined)", "% Inhibition": -12, "Z score": 1.05}, {"compound": "O=C(Nc1cnccn1)c1sccc1OC(F)F", "% Inhibition": -6, "Z score": 0.61}, {"compound": "O=C(NCCCn1ccccc1=O)c1cccc(OC(F)F)c1", "% Inhibition": -11, "Z score": 1.3}, {"compound": "CCn1ncnc1[C@H](C)Nc1nc(C)nc(C)c1C", "% Inhibition": 0, "Z score": 0.03}, {"compound": "O=C(N[C@H]1CNC[C@@H]1O)c1cn(C(c2ccccc2)c2ccccc2)nn1", "% Inhibition": 0, "Z score": -0.02}, {"compound": "CC(C)c1nc(N2CCCC2=O)sc1C(=O)NC1CCCCCCC1", "% Inhibition": 2, "Z score": -0.22}, {"compound": "CCC[C@]1(c2ccccc2)NC(=O)N(Cc2coc(-c3ccc(C)cc3C)n2)C1=O", "% Inhibition": -10, "Z score": 1.19}, {"compound": "CCOc1ncccc1C(=O)NCc1ccc(N2CCCCC2)nc1", "% Inhibition": -14, "Z score": 1.59}, {"compound": "CC(C(C)S(C)(=O)=O)N(C)Cc1ccccn1", "note": "(centres undefined)", "% Inhibition": -5, "Z score": 0.69}, {"compound": "C[C@@H](c1cccnc1)N(C)CC(=O)Nc1nccs1", "% Inhibition": 9, "Z score": -1.03}, {"compound": "O=S(=O)(c1ccccc1)N1CCc2nc(N3CCc4ccccc4C3)nc(Oc3cccc(F)c3)c2C1", "% Inhibition": -9, "Z score": 1.59}, {"compound": "CCCc1nc(C)c(CN[C@H]2CCC(=O)N(Cc3ccccc3)CC2)s1", "% Inhibition": 7, "Z score": -1.33}, {"compound": "Cc1cnc(CCNS(=O)(=O)C(C)C)n1C1CCC1", "% Inhibition": -8, "Z score": 1.23}, {"compound": "Cn1ccnc1CN1CCN(c2nc3nonc3nc2N2CCCCC2)CC1", "% Inhibition": -8, "Z score": 1.06}, {"compound": "Cc1nn(C)c(C)c1CCc1nc(-c2ccco2)nn1-c1ccncc1", "% Inhibition": -10, "Z score": 1.32}, {"compound": "COC(=O)c1ccc(N(Cc2nnc(C)n2C)S(C)(=O)=O)cc1", "% Inhibition": 3, "Z score": -0.47}, {"compound": "CCCC(=O)Nc1nn(C)cc1C(=O)OCC", "% Inhibition": -5, "Z score": 0.82}, {"compound": "C[C@@H](C(=O)c1ccccc1)N1C(=O)CCC1=O", "% Inhibition": -9, "Z score": 1.47}, {"compound": "CC(CC(=O)c1ccco1)NC(=O)C1CCCc2ccccc21", "note": "(centres undefined)", "% Inhibition": 1, "Z score": -0.09}, {"compound": "CN(Cc1ccncc1)S(=O)(=O)CCCC(F)(F)F", "% Inhibition": -11, "Z score": 0.97}, {"compound": "CC[C@@H](CO)NC(=O)NC1CCCc2cnn(C(C)C)c21", "note": "(some centres undefined)", "% Inhibition": -6, "Z score": 0.69}, {"compound": "CCn1nc(C(=O)NCCN2CCCC2)cc1-c1ccc(C(C)(C)C)cc1", "% Inhibition": -12, "Z score": 1.47}, {"compound": "COc1ccc(OC2CCN(C3CCCC3)CC2)c(C(=O)N(C)Cc2ccncc2C)c1", "% Inhibition": -3, "Z score": 0.47}, {"compound": "CN1CCN(C(=O)C2CC3CCCC(C2)C3=O)CC1", "note": "(centres undefined)", "% Inhibition": -18, "Z score": 2.12}, {"compound": "CC[C@H]1C(=O)NCCCN1C(=O)c1cnn2ccncc12", "% Inhibition": -5, "Z score": 0.49}, {"compound": "O=C(CN1CC(=O)NC1=O)NCc1ccc(-n2cnc3ccccc32)cc1Cl", "% Inhibition": -11, "Z score": 1.31}, {"compound": "CCn1ncc(Cl)c1C(=O)N1CCC[C@H]1c1cccs1", "% Inhibition": 3, "Z score": -0.61}, {"compound": "O=C(CN1C(=O)c2ccccc2C1=O)OCCOc1cccc(Cl)c1", "% Inhibition": -5, "Z score": 0.85}, {"compound": "Cn1cccc1-c1noc(CNC(=O)c2cccnc2O)n1", "% Inhibition": -18, "Z score": 2.29}, {"compound": "OCCN1CCC[C@H](c2ccc(F)cc2)CC1", "% Inhibition": -14, "Z score": 1.73}, {"compound": "Cc1nccn1CCN(C1CCN(C(=O)CCC2CCCCC2)CC1)S(C)(=O)=O", "% Inhibition": -13, "Z score": 1.77}, {"compound": "O=C(CC[C@H]1CCCCO1)NCc1cccc(C(F)(F)F)n1", "% Inhibition": 1, "Z score": -0.07}, {"compound": "CCCS(=O)(=O)NCC1(CO)CC1", "% Inhibition": -15, "Z score": 1.56}, {"compound": "COc1cc(C)cc(C)c1S(=O)(=O)N(C)Cc1nnc[nH]1", "% Inhibition": 37, "Z score": -5.31}, {"compound": "O=C(Nc1cccc2ccccc12)N1CCCC[C@@H]1CCn1ccnc1", "% Inhibition": 2, "Z score": -0.41}, {"compound": "Cc1oc(C)c(C(=O)[C@H](C#N)c2ccccn2)c1C", "% Inhibition": 3, "Z score": -0.46}, {"compound": "COc1ccc([C@H](CNCc2c(OC(F)F)ccc3ccccc23)N2CCOCC2)cc1", "% Inhibition": -13, "Z score": 1.41}, {"compound": "O=C(O)C1CCCN1C(=O)COCC1CCCO1", "note": "(centres undefined)", "% Inhibition": -11, "Z score": 1.27}, {"compound": "O=C(NCC1(Cn2cccn2)CC1)c1csc2nc(-c3ccccc3)cn12", "% Inhibition": 6, "Z score": -0.86}, {"compound": "COC(=O)CC[C@H]1CCCCN1C(=O)c1[nH]cnc1C", "% Inhibition": -7, "Z score": 1.26}, {"compound": "COc1cccc(-c2noc(N3CCC(N4CCCCC4)CC3)n2)c1", "% Inhibition": -11, "Z score": 1}, {"compound": "COc1ccc(F)c(CN2CCC[C@@]3(CCN(C(=O)CCC(F)(F)F)C3)C2)c1", "% Inhibition": -2, "Z score": 0.38}, {"compound": "CCNc1ncc(C(=O)Nc2[nH]nc(C3CC3)c2C)s1", "% Inhibition": -4, "Z score": 0.55}, {"compound": "CC(C)c1n[nH]c([C@@H]2CN(Cc3cccc4cccnc34)CCO2)n1", "% Inhibition": 0, "Z score": -0.05}, {"compound": "CN(C)C[C@H]1C[C@H](CO)CN(C(=O)CCc2ccc(-c3ccccc3)cc2)C1", "% Inhibition": -9, "Z score": 1.78}, {"compound": "Cc1ncsc1C(=O)N[C@@H](C)Cn1cccn1", "% Inhibition": -11, "Z score": 0.98}, {"compound": "CCn1ncc(-c2nc(C(C)C3CCCO3)no2)n1", "note": "(centres undefined)", "% Inhibition": -10, "Z score": 1.82}, {"compound": "O=C1NCCN(C(=O)c2ccccc2-c2nnn[nH]2)[C@H]1Cc1ccccc1", "% Inhibition": -18, "Z score": 1.57}, {"compound": "N#Cc1ccc(CN(CCC(F)(F)F)C2CCCC2)o1", "% Inhibition": 1, "Z score": -0.17}, {"compound": "O=C([C@@H]1CCCc2[nH]ncc21)N(CCO)CC(F)F", "% Inhibition": -4, "Z score": 0.5}, {"compound": "Cc1ccc(O[C@@H](C)CNC(=O)NCc2cccnc2)cc1", "% Inhibition": 13, "Z score": -2.51}, {"compound": "CCCS(=O)(=O)NCCc1ncc(C)n1C(C)C", "% Inhibition": 1, "Z score": -0.15}, {"compound": "COc1cccc2nnc(NC(=O)CCC(=O)NC3CCCCC3)n12", "% Inhibition": 5, "Z score": -1.03}, {"compound": "CC(C)c1noc(NC2CCN(S(=O)(=O)C(C)(C)C)CC2)n1", "% Inhibition": 2, "Z score": -0.21}, {"compound": "N#Cc1c(O)nc(N2CCOCC2)nc1-c1ccccc1", "% Inhibition": 20, "Z score": -1.93}, {"compound": "C[C@@H](Cc1cnccn1)NC(=O)c1coc(COc2ccccc2)n1", "% Inhibition": -24, "Z score": 2.12}, {"compound": "Cc1nc(C)c(S(=O)(=O)Nc2cnoc2C)s1", "% Inhibition": 1, "Z score": -0.09}, {"compound": "Cc1[nH]c2c(F)cc(F)cc2c1CCNC(=O)CCn1cncn1", "% Inhibition": -23, "Z score": 2.29}, {"compound": "Cc1ccsc1C(CO)NC1CCCn2ccnc21", "note": "(centres undefined)", "% Inhibition": -14, "Z score": 2.1}, {"compound": "CN(C)c1ccc(C#N)c(NS(=O)(=O)c2ccc(CC#N)cc2)c1", "% Inhibition": -3, "Z score": 0.42}, {"compound": "Cc1c(Br)cc(F)cc1C(=O)N[C@@]1(CCO)CCOC1", "% Inhibition": -4, "Z score": 0.37}, {"compound": "O=C(NCc1ccco1)c1ccc2c(=O)n(-c3cccc(F)c3)c(N3CCOCC3)nc2c1", "% Inhibition": -14, "Z score": 2.69}, {"compound": "CCc1nc(C)c(-c2nc(C3CC3)nn2[C@H]2CCS(=O)(=O)C2)o1", "% Inhibition": -25, "Z score": 3.23}, {"compound": "Cc1ncc(CO)c(CN(C)CC2CCCC2)c1O", "% Inhibition": -9, "Z score": 0.95}, {"compound": "O=C(CC1CCC1)N1CCC(CF)CC1", "% Inhibition": 14, "Z score": -1.8}, {"compound": "O=C(NCc1ccc2c(c1)OCO2)C1CC(c2ccccc2)CN(C(=O)c2ccccc2F)C1", "note": "(centres undefined)", "% Inhibition": -5, "Z score": 0.5}, {"compound": "CC(C)C[C@H]1COCCN1C(=O)N[C@@H]1CCCN(C(=O)CCC(F)(F)F)C1", "% Inhibition": -4, "Z score": 0.74}, {"compound": "CCN1CCCC1CN1CC(C(=O)Nc2ccc(C)c(O)c2)CC1=O", "note": "(centres undefined)", "% Inhibition": -3, "Z score": 0.39}, {"compound": "COCCCNC(=O)C1Cc2ccc(OC)cc2N2CCN(Cc3ccc(Cl)cc3)CC12", "note": "(centres undefined)", "% Inhibition": -9, "Z score": 1.05}, {"compound": "CCc1nnc(CN(C)c2cc(C3CC3)ncn2)o1", "% Inhibition": 0, "Z score": -0.04}, {"compound": "CC(=O)N1CC[C@H](CNC(=O)c2cc(Cc3ccccc3)n[nH]2)C1", "% Inhibition": 8, "Z score": -1.56}, {"compound": "O[C@H]1CCCN(Cc2cc(Cl)c3c(c2)OCCCO3)C1", "% Inhibition": 12, "Z score": -1.6}, {"compound": "O=C([C@H]1CCCN(c2ncnc3c2nc2n3CCCCC2)C1)N1CCCc2ccccc21", "% Inhibition": -7, "Z score": 1.1}, {"compound": "O=C(CN1CCN(c2ccccc2)C1=O)N1CCC(Cc2ccccc2)CC1", "% Inhibition": -11, "Z score": 1.28}, {"compound": "CC(C)c1nccc(-c2nccn2Cc2cnn(-c3ccccc3)c2)n1", "% Inhibition": -9, "Z score": 1.84}, {"compound": "CC(=O)Nc1c(-c2ccccn2)nsc1C(=O)N1CCCCCC1", "% Inhibition": -2, "Z score": 0.23}, {"compound": "Cn1nc(-c2c[nH]c3ccccc23)nc1C1CCC1", "% Inhibition": -7, "Z score": 0.79}, {"compound": "O=C(NCc1cccnc1)c1cnn(-c2nccc(-c3ccc4c(c3)OCO4)n2)c1-c1ccco1", "% Inhibition": -6, "Z score": 0.87}, {"compound": "Cc1cn2c(nc1=O)OC1CC2OC1CO", "note": "(centres undefined)", "% Inhibition": -4, "Z score": 0.8}, {"compound": "COc1ccc(CNC(=O)N2CC(F)(F)C[C@H]2CN2CCCc3ccccc32)cc1", "% Inhibition": -12, "Z score": 2.13}]}]}
